The supplement of paper PMC3334620
In all, about 33,000 sequences were measured (“E-score (-0.5 to 0.5)”: median about -0.013, highest 2% from about 0.3 on). This is one part of the list.

Target: T1, Msn1 (UniProt P22148)
T1 sequence: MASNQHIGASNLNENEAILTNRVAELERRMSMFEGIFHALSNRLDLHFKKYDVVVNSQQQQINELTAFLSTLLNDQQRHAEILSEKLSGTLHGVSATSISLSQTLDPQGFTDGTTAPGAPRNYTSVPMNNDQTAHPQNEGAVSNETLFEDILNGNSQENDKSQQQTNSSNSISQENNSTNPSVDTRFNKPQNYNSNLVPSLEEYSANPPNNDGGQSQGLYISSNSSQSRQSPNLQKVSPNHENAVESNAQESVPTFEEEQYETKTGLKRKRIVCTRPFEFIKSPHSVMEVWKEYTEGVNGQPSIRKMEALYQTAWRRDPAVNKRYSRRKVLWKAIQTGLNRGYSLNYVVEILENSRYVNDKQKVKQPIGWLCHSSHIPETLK
Assay: PBM E-score (8-mer binding enrichment) (E-score (-0.5 to 0.5)); higher = stronger / more preferred TF binding; most listed sequences are background and not binding sites
Conditions: protein concentration: 200 nM; construct: GST-full length
In short: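 Full-length yeast transcription factors or their DNA-binding domains, GST-tagged and expressed with PURExpress, were applied at about 100-200 nM to universal all-10-mer Agilent arrays. These arrays had been made double-stranded by primer extension on fresh or once-stripped slides. Detection used fluorescent anti-GST, normalisation used masliner, and E-scores for ungapped eight-base words pooled with reverse complements came from the Universal PBM Analysis Suite.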

| Sequence | PBM E-score |
| --- | --- |
| AGGTACCC | -0.12 |
| GCAGTCGC | -0.133 |
| GGCCGTGA | -0.00697 |
| ATAGGGGA | -0.126 |
| AGTATGAA | 0.0712 |
| AGTTTGAG | -0.0492 |
| ACTAAGCT | 0.0437 |
| CACCACCG | -0.208 |
| AGACTGCC | -0.0572 |
| AGCCAGTC | -0.293 |
| CCGTGGGC | -0.129 |
| AGAAGCGG | -0.101 |
| ACTCGGAC | 0.281 |
| ATGACGAA | 0.0573 |
| CTACCAGC | -0.164 |
| ACTACAGG | 0.094 |
| CAGAGGGC | -0.21 |
| GAAGCTCA | -0.00485 |
| CGCCTCCC | -0.4 |
| AAAACGGG | 0.145 |
| AGGCAGCC | -0.197 |
| AATTGGGG | -0.0385 |
| AACCCGTT | -0.0539 |
| GCTCAGAC | -0.082 |
| ACTCGAGT | 0.14 |

| Sequence | PBM E-score |
| --- | --- |
| CACCCAGC | -0.264 |
| AGAATGAA | 0.0547 |
| TAGTTGGA | 0.072 |
| AGACGGTA | -0.0408 |
| TCGGCTAA | 0.116 |
| CCACCGAC | -0.245 |
| AATCCTGC | -0.0314 |
| AAAGAGAT | -0.0658 |
| TACAGATA | 0.155 |
| ACACGGTA | -0.0076 |
| ACAACGGT | 0.00073 |
| TAGCTGCA | -0.245 |
| ATATGGGC | 0.0311 |
| AAACGATG | 0.0779 |
| GAAAAGGC | -0.0462 |
| ATATGCCA | 0.0519 |
| AACCCGGT | -0.217 |
| TACACCGA | 0.162 |
| TCAACAAA | 0.113 |
| GTGCCTGA | -0.25 |
| AACACATA | 0.071 |
| GAAGAGCA | -0.243 |
| ACGCGCAC | -0.025 |
| CTTGCTTA | -0.00126 |
| CAAGAGCA | -0.164 |

| Sequence | PBM E-score |
| --- | --- |
| ATCCACCA | -0.148 |
| CCACGCAA | -0.0256 |
| AATGTTCC | 0.176 |
| CCCGTCGG | -0.194 |
| GTTCACTA | 0.0987 |
| CAATTGCG | -0.00651 |
| GCCCCAAC | -0.042 |
| AGGTCATC | 0.0226 |
| CCCCTATC | -0.243 |
| GAAGAGCC | -0.0467 |
| AGTCCGTA | 0.208 |
| ATATAGTG | 0.198 |
| ACTCGCAC | -0.0502 |
| ACCGCACG | -0.0708 |
| CTTTGCAC | 0.0381 |
| ACATAGCG | 0.0839 |
| GCATCCTA | -0.107 |
| CAGGAGAC | -0.17 |
| ATCAACTG | 0.0832 |
| ACAGCCTA | 0.142 |
| GCCGTTAA | 0.0997 |
| AAGAGGTC | -0.191 |
| CCTAAAAA | 0.0396 |
| TGGCAAAA | 0.174 |
| CCAGTTAC | -0.166 |

| Sequence | PBM E-score |
| --- | --- |
| ATCCCAGG | -0.0875 |
| ACGAAGTG | 0.119 |
| ACAATTAT | 0.273 |
| ATTTGTGG | 0.207 |
| ACCAGACT | -0.00359 |
| GCGTTCAA | -0.131 |
| CTTAAATC | 0.0754 |
| TCAAGTAA | 0.239 |
| ATAAGCCG | 0.00553 |
| CTCGTTCA | 0.148 |
| AAATCCCA | 0.0405 |
| CCAACCGC | 0.0322 |
| TCCGCCCA | -0.0499 |
| GGTGGCTA | -0.176 |
| TAGGTATA | 0.0777 |
| GAATGGAC | 0.217 |
| CCGTATTA | 0.0851 |
| AAATATGC | -0.0194 |
| GTTGCAGA | -0.107 |
| TTCTACAA | 0.0874 |
| TCCCTTAA | -0.00555 |
| AAGATTAT | 0.114 |
| GATTATTA | -0.0075 |
| AATTTAGA | 0.11 |
| TAATACAA | 0.145 |

| Sequence | PBM E-score |
| --- | --- |
| CCGGGTCC | 0.0052 |
| CAATCGCA | 0.00062 |
| ACGACTCA | -0.0661 |
| CGCCCACG | -0.23 |
| CCGCTGTA | 0.00153 |
| GACGCATC | 0.129 |
| GTCACTTA | 0.218 |
| TTAATTAA | -0.0655 |
| ATGGGCCG | -0.222 |
| CATAGGCA | -0.118 |
| CGCCTAGA | -0.0394 |
| GGGAAGTA | -0.0216 |
| GGTCCTAA | 0.18 |
| TCCCCGAA | -0.00114 |
| ACGATTCC | -0.012 |
| ATGGTGTC | 0.162 |
| ATGGTATC | -0.00837 |
| GTTATTGA | 0.0396 |
| CAATGGGA | 0.0129 |
| GGATCTGA | 0.021 |
| ACCCTGAC | -0.0428 |
| ATTCGTCA | 0.0623 |
| AGTATCTA | 0.197 |
| AGTGTGCG | -0.0823 |
| CCTTAGGC | -0.252 |

| Sequence | PBM E-score |
| --- | --- |
| CGGCGATC | 0.0124 |
| CCGGCAGA | -0.00566 |
| GCGCCGGA | -0.00906 |
| CGGCCCCA | -0.326 |
| ATCGAGCC | -0.0197 |
| GCTTAACA | 0.00132 |
| TGAAGGCA | -0.0775 |
| CATGCATA | -0.0364 |
| TCGGTGCA | 0.0189 |
| CTCACATA | -0.0194 |
| TAGTGGAA | -0.0712 |
| AGAGACAG | 0.0165 |
| AGATTAGC | -0.0505 |
| GTGCAGAA | -0.0299 |
| ATTTGGAA | -0.0497 |
| TAATTCCA | 0.119 |
| CTAGGATC | -0.0192 |
| ATAGGGTA | -0.0611 |
| GAGTCCTA | 0.0172 |
| CTTGCGAC | -0.0181 |
| AAGGTCAA | -0.0743 |
| AACTCCAC | -0.0751 |
| GCAGAGCA | -0.271 |
| ACGCTTAT | -0.182 |
| GACCAGGC | -0.263 |

| Sequence | PBM E-score |
| --- | --- |
| AAGTACTC | 0.0584 |
| CAATAGTA | 0.0551 |
| GTTGTCCA | 0.381 |
| GTTCGTAA | -0.00089 |
| AAATCCAG | 0.0557 |
| AGAATGAT | 0.124 |
| CTTTAGTA | 0.0225 |
| AGCTGTGA | 0.0457 |
| ATCCGGGG | -0.1 |
| AATTAACA | 0.0468 |
| TGGCGACA | 0.145 |
| TAAAACTA | 0.106 |
| AGAAGTTC | -0.177 |
| CTATACGC | -0.0146 |
| CTGCTTCC | -0.229 |
| AGCCTGGG | -0.109 |
| CAACCTAG | -0.0247 |
| AATGCTCC | -0.0775 |
| CAGTCCCA | -0.113 |
| ATAATGGC | -0.0691 |
| GTCGAAAA | 0.0756 |
| ACAACTCC | 0.021 |
